Measurements reported in ChEMBL document CHEMBL1201862, “PubChem BioAssay data set” (2004).
Counter-ions that a name gives are not always drawn.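 Protocol summary: plate cells (96-well), add compound at 5 concentrations, incubate 48 h, interpolate endpoints linearly. GI50 marks 50% less growth.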 Calls of active or inactive are those of the source. No stated cut-off is given here; in the data, active = GI50 up to about 1.1 µM and inactive = higher.

What follows are compounds tested on NCI-H322M (assay: growth of human tumour cells (NCI), 48 h).
In the case of `Cc1ccc2nc(-c3nccn3C)cc(C(=O)NC(C)CN(C)C)c2c1` (stereo unspecified), the GI50 is reported as inactive: > 100 µM. With `CCCCNc1nc(NC2OCC(OC(C)=O)C(OC(C)=O)C2OC(C)=O)c(N=O)c(=O)n1C` (stereo unspecified) the GI50 was inactive: > 10 µM. `O=C(O)CCCNS(=O)(=O)c1ccccc1` was tested, and the GI50 was inactive: > 100 µM. In the case of `COc1ccc([C@H]2C=C(c3cc(F)c(Cl)cc3Cl)NC(=S)N2)cc1`, the GI50 is reported as inactive: 51.3 µM. With `O=C(COC(c1ccc(F)cc1)c1ccc(F)cc1)N1CCN(CCCc2ccccc2)CC1` the GI50 was inactive: 4.36 µM. `Cc1ccc(C(=O)C(Cl)C(Cl)c2ccc(C)cc2)cc1` (stereo unspecified) was tested, and the GI50 was inactive: 13.6 µM. With `CCOC(=O)CCC(NC(=O)c1ccc(Nc2nc3ccccc3nc2-c2cccs2)cc1)C(=O)OCC` (stereo unspecified) the GI50 was inactive: 32.4 µM. With `COC(OC)c1cccc2c1C(=O)CCC1(O)c3ccccc3C1C2` (stereo unspecified) the GI50 was inactive: > 100 µM. `COc1ccc(/C=C\c2cc(OC)c(OC)c(OC)c2)cc1OC(=O)NCCN(C)C` was tested, and the GI50 was active: 0.000412 µM. `CCOC(=O)c1c(SC(=O)C(C)(C)Oc2ccc(Cl)cc2)n(-c2ccccc2)c(=S)n(-c2ccccc2)c1=O` was tested, and the GI50 was inactive: 25.5 µM. `Clc1ccc(CCN(CCc2ccc(Cl)c(Cl)c2)CCN2CCCC2)cc1Cl` was tested, and the GI50 was inactive: 2.36 µM. With `C[n+]1c(-c2ccc(/C=N\N3CCN(/N=C/c4ccc(-c5cn6ccccc6[n+]5C)cc4)CC3)cc2)cn2ccccc21` the GI50 was inactive: > 100 µM. For `CC1=C(C(=O)N[C@@H](Cc2ccccc2)C(=O)O)N2C(=O)[C@@H](NC(=O)[C@@H](N)CC(C)C)[C@H]2SC1`, the GI50 was inactive: > 100 µM. In the case of `CCC(O)CCCCCCCCCCCCCCC(=O)O` (stereo unspecified), the GI50 is reported as inactive: 68.5 µM. For `COC(=O)/N=[N+](\[O-])C(c1ccc(Cl)cc1)c1ccc(Cl)cc1`, the GI50 was inactive: 34.2 µM. For `O/N=N/c1ccc2ccccc2n1`, the GI50 was inactive: > 100 µM. With `O=C(OCc1ccccc1)N1N=NC2C1C1CC(OCc3ccccc3)(OCc3ccccc3)C2O1` (stereo unspecified) the GI50 was inactive: > 100 µM. For `Cc1ccc(C(=O)Nc2ccc(CP(=O)(O)O)cc2)cc1NC(=O)c1cccc(NC(=O)Nc2cccc(C(=O)Nc3cc(C(=O)Nc4ccc(CP(=O)(O)O)cc4)ccc3C)c2)c1`, the GI50 was inactive: > 100 µM. `COc1cc(C(c2cc3c(cc2O)OCO3)N2CCCC2)cc(OC)c1OC` (stereo unspecified) was tested, and the GI50 was inactive: 32.8 µM. For `CCOC(=O)/C=C/CC(C)(C)COC(C)=O`, the GI50 was inactive: > 10 µM. `CC1(C)O[C@@H](CO)[C@H]([C@@]23OC[C@H]4OC(C)(C)OC4[C@@H]2OC(C)(C)O3)O1` (stereo partly specified) was tested, and the GI50 was inactive: > 100 µM. In the case of `O=C(O)Cc1cccc2c(=O)c3ccccc3oc12`, the GI50 is reported as inactive: > 100 µM. With `COc1cc(O)c(C(C)=O)c(O)c1` the GI50 was inactive: > 100 µM. `CCC1c2cc3n(c(=O)c2COC1O)Cc1c-3nc2ccccc2c1Cl` (stereo unspecified) was tested, and the GI50 was inactive: 57.1 µM. For `CC(C)(C)c1ccc2c(c1)OCc1n[nH]c(n1)COc1cc(C(C)(C)C)ccc1OCCOCCO2`, the GI50 was inactive: 8.3 µM. `CCCCCCCC(=O)OC[C@H](C[As](=O)(O)O)OC(=O)CCCCCCC` was tested, and the GI50 was inactive: 14.1 µM. In the case of `COc1ccc(NC(C)=O)c(C(=O)CCNC(C)=O)c1`, the GI50 is reported as inactive: > 100 µM. For `CCCCCC(=O)OCC1(CO)C/C(=C/CC(C(C)C)C(C)C)C(=O)O1` (stereo unspecified), the GI50 was inactive: > 75 µM. For `O=C1Nc2ccc([N+](=O)[O-])cc2/C1=N/Nc1ccc([N+](=O)[O-])cc1`, the GI50 was inactive: 20.6 µM. With `O=c1c2c3c(sc2nc(S)n1-c1ccccc1)CCCc1ccc([N+](=O)[O-])cc1-3` the GI50 was inactive: > 100 µM. For `Oc1cc(O)c2c(c1)OC(c1ccc(O)c(O)c1)C(OC1(c3cc(O)c(O)c(O)c3)Oc3cc(O)cc(O)c3C(O)C1O)C2` (stereo unspecified), the GI50 was inactive: 43.1 µM. For `O=C(CC(C(=O)c1ccco1)c1ccco1)c1ccco1` (stereo unspecified), the GI50 was inactive: > 100 µM. For `CCOC(=O)c1cn(C)nc1N/C(C)=C\C(=O)c1ccccc1`, the GI50 was inactive: > 100 µM. `C[n+]1c2ccccc2c(C(=O)Nc2ccc(S(=O)(=O)N=C(N)N)cc2)c2ccccc21` was tested, and the GI50 was inactive: > 100 µM. In the case of `CC(=O)OCC1OC(OC2CC3C(C)(C)C(=O)CC[C@]3(C)C3CC[C@]45C[C@]4(CCC5[C@@H](C)CC(O)C(O)C(C)(C)O)[C@]23C)C(O)C(O)C1O` (stereo partly specified), the GI50 is reported as inactive: 16.1 µM. For `O=C(Nc1ccc(Cl)cc1)c1cccc([N+](=O)[O-])c1O`, the GI50 was inactive: 4.28 µM. `C=CCC(O)c1cc(OC)ccc1OC` (stereo unspecified) was tested, and the GI50 was inactive: > 100 µM. With `CC(=O)OC[C@@H](OC(C)=O)[C@H](OC(C)=O)[C@@H]1OC(C)(C)O[C@@H]1C1SCCCS1` the GI50 was inactive: > 100 µM. With `CCCCc1cc2c(C)cc(=O)oc2c(O)c1O` the GI50 was inactive: 45.7 µM. For `COc1ccc(-c2c(CN3CCOCC3)sc3nc4ccccc4n23)cc1`, the GI50 was inactive: 30.1 µM. `C(CCCCc1nnc(N2CCOCC2)o1)CCCc1nnc(N2CCOCC2)o1` was tested, and the GI50 was inactive: > 100 µM. For `CCCCC(C(=O)CCC(=O)Nc1ccc(Cl)cc1)C(=O)C(C)C` (stereo unspecified), the GI50 was inactive: > 100 µM. With `Cn1c(=O)c2c(nc3n2CCCC(=O)N3CC(O)CCl)n(C)c1=O` (stereo unspecified) the GI50 was inactive: > 100 µM. With `CC(C)CCCC(C)[C@H]1CCC2[C@@H]3CCC4Cc5nc6c(nc5C[C@]4(C)C3CC[C@@]21C)CC1CC[C@@H]2C(CC[C@@]3(C)C2CC[C@@H]3O)[C@@]1(C)C6` (stereo partly specified) the GI50 was inactive: > 100 µM. With `CC(C)NC(=O)OCc1c(COC(=O)NC(C)C)c(-c2ccc[n+](COC(=O)CC(C)(C)C)c2)n2c1CCC2` the GI50 was inactive: > 100 µM. `Nc1ccccc1CCCC(=O)O` was tested, and the GI50 was inactive: > 100 µM. For `O=S1(=O)N2CN3CN(C2)CN1C3`, the GI50 was inactive: 142 µM. For `N#CC(Cc1ccccc1Br)N(CCC1=CCCCC1)C(c1ccccc1)c1ccccc1` (stereo unspecified), the GI50 was inactive: 84.3 µM. For `CCOC(OC1=CCCC1)C(C)[Se]c1ccccc1` (stereo unspecified), the GI50 was inactive: > 100 µM. `O=[N+]([O-])/C(Cl)=C(/C(Cl)=C(Cl)Cl)N1CCOCC1` was tested, and the GI50 was inactive: 18.3 µM. `CC(C)(Br)C(Br)CCC1(C2CO2)CO1` (stereo unspecified) was tested, and the GI50 was inactive: > 5 µM. In the case of `Cc1cc(Cl)ccc1N1C(=O)C(=O)C(c2nc3ccccc3s2)C(=O)C1=O`, the GI50 is reported as inactive: > 100 µM. `COc1cc2c(cc1OC)[C@@H](Nc1ccc(F)cc1)C1COC(=O)[C@@H]1C2c1cc(OC)c(O)c(OC)c1` (stereo partly specified) was tested, and the GI50 was inactive: 76 µM. For `COC(=O)C1=CO[C@@H](OC2CC(CO)C(O)C(O)C2O)[C@@H]2[C@@H](C)[C@@H](OC(=O)/C=C/c3ccccc3)[C@@H](O)[C@H]12.COC(=O)C1=CO[C@@H](OC2CC(CO)C(O)C(O)C2O)[C@@H]2[C@@H](C)[C@@H](OC(=O)c3ccccc3)[C@@H](O)[C@H]12` (stereo partly specified), the GI50 was inactive: > 100 µM. With `CCN(CC)c1ccc(/C=C(\C#N)c2nc(N)nc(N3N=C(C)CC3(C)C)n2)cc1` the GI50 was inactive: 26.3 µM. `CCN(CC)c1oc(N(CC)CC)c(C(=O)Nc2ccccn2)c(=O)c1C(C)=O` was tested, and the GI50 was inactive: > 100 µM. In the case of `O=c1c2cc(Br)ccc2nc(CNc2ccccc2)n1-c1ccccc1`, the GI50 is reported as inactive: 24.7 µM. With `CC1=C(C(=O)NCc2ccccc2)C(c2ccc(C3C(C(=O)NCc4ccccc4)=C(C)NC(C)=C3C(=O)NCc3ccccc3)cc2)C(C(=O)NCc2ccccc2)=C(C)N1` the GI50 was inactive: 18 µM. In the case of `O=C(O)[C@@H]1CSCN1C(=O)[C@@H]1CCC(=S)N1`, the GI50 is reported as inactive: > 100 µM. `N#CC1=C(N)C(C#N)(C#N)C(c2ccc(F)cc2)C=C1C1CC1` (stereo unspecified) was tested, and the GI50 was inactive: 8.93 µM. For `COc1cc(/N=N\c2cccc(S(=O)(=O)O)c2)ccc1/N=N\c1ccc(/C=C/c2ccc(-n3on3-c3ccc(/C=C/c4ccc(/N=N/c5ccc(/N=N\c6cccc(S(=O)(=O)O)c6)cc5OC)cc4S(=O)(=O)O)c(S(=O)(=O)O)c3)cc2S(=O)(=O)O)c(S(=O)(=O)O)c1`, the GI50 was inactive: > 100 µM. `FC(F)(F)c1ccccc1N1CCN(c2nc(-c3cccs3)nc3ccc(Br)cc23)CC1` was tested, and the GI50 was inactive: 38.3 µM. For `CC1=CC(=O)C2=C(C)CCC3C(C)C(=O)OC3C12` (stereo unspecified), the GI50 was inactive: > 100 µM. `COc1ccc(CC(C#N)c2cc(OC)c(OC)c(OC)c2)cc1` (stereo unspecified) was tested, and the GI50 was active: 0.133 µM. In the case of `O=[N+]([O-])c1ccc2c(c1)nc(Cc1ccccc1)n2C[C@@H]1CCCN2CCCCC12` (stereo partly specified), the GI50 is reported as inactive: 20.8 µM. `O=C1N2CCN=C2c2ccccc2C1(O)c1ccccc1` (stereo unspecified) was tested, and the GI50 was inactive: > 100 µM. With `C=C[C@@]1(C)CCC2(O)C(CCC3C2(C)CCC[C@@]3(C)COC(=O)CC(=O)OC)C1` (stereo partly specified) the GI50 was inactive: 35 µM. In the case of `O=C(O)C1C2c3ccccc3C(c3ccccc32)C1C(=O)NCC1CC1` (stereo unspecified), the GI50 is reported as inactive: 82.8 µM. For `Cn1c(=O)c2c(nc3sc4nc5ccccc5nc4n32)n(C)c1=O`, the GI50 was inactive: > 100 µM. `O=C1c2cccc3cccc(c23)C(=O)N1CCCNCCCCNCCCNCCCN1C(=O)c2cccc3cccc(c23)C1=O` [BISNAPHTHALIMIDOPROPYL SPERMIDINE TRIHYDROBROMIDE] was tested, and the GI50 was active: 0.279 µM. For `Cc1cccc(C)c1NC(=O)C(=O)C1C(=O)NC(=O)NC1=O`, the GI50 was inactive: > 100 µM. With `CN(C)CCNc1ccc2ncnc3c2c1C(=O)c1ccccc1-3` the GI50 was active: 0.341 µM. `COC(=O)C#CCC1CCCC1C1SCCS1` (stereo unspecified) was tested, and the GI50 was inactive: > 100 µM. With `C=C(c1ccccc1)C1(O)CCCCC1N` (stereo unspecified) the GI50 was inactive: > 100 µM. For `O=c1[nH]c2cc3cccnc3c(Cl)c2nc1CBr`, the GI50 was inactive: 15.3 µM. `Cc1c(C)c(C)n(C2OC(CO)C(O)C(O)C2O)c(=S)c1C#N` (stereo unspecified) was tested, and the GI50 was inactive: > 100 µM. `COc1ccc(C(OCC2OC(n3cc(C)c(=O)[nH]c3=O)CC2n2cc(Cn3cc(Br)c(=O)[nH]c3=O)nn2)(c2ccccc2)c2ccccc2)cc1` (stereo unspecified) was tested, and the GI50 was inactive: > 100 µM. For `FC(F)(F)C1(C(F)(F)F)O[Si]2(OC(C(F)(F)F)(C(F)(F)F)c3ccccc32)c2ccccc21`, the GI50 was inactive: 8.75 µM. With `CC(OC(=O)C(CC(=O)OC(C)(C)C)NC(=O)OC(C)(C)C)C(=O)OCc1ccccc1` (stereo unspecified) the GI50 was inactive: > 100 µM. For `COC(=O)c1n[nH]c(C)c1/N=N/N(C)CCC#N`, the GI50 was inactive: 22.5 µM. `CCNC(=O)N(CC)CN(CC)C(=O)NCC` was tested, and the GI50 was inactive: > 100 µM. `N#C/C(N)=N/c1ccccc1` was tested, and the GI50 was inactive: > 100 µM. With `CCC(=O)NCCc1c2c3c(ccnc3c3ncsc13)-c1ccccc1N2` [KUANONIAMINE C] the GI50 was inactive: 1.37 µM. With `O=C(Nc1cccc(Cl)c1)C(=O)C(C(=O)c1ccc2ccccc2c1)C1OC(=O)c2ccccc21` (stereo unspecified) the GI50 was inactive: 17.4 µM. `O=c1c2nc(-c3ccccc3)oc2n(-c2ccccc2)c(=O)n1-c1ccccc1` was tested, and the GI50 was inactive: 39.6 µM. In the case of `Cc1cccc2nc3cc(O)cc(O)c3c(O)c12`, the GI50 is reported as inactive: 9.38 µM.
